Values joined by “and” are separate entries in the source; they are usually repeats but may differ in a detail not shown here. Identical values can stand only once. The full ranking holds about 5,300 compounds; the median of “PER2::LUC luminescence relative to vehicle control” is about 0.96, and the highest 2% start at about 1.3. The list shows a part of the results.
Test system: mPer2Luc MEF
Assay: PER2::LUC luminescence relative to vehicle control (fold of vehicle); higher = higher PER2::LUC reporter signal
Conditions: 10 µM
Outline: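 Mouse embryonic fibroblasts carrying the mPer2Luc reporter were seeded at ~3000 cells per well in 384-well plates, 48 h before compounds from commercial libraries were added at 10 μM. Cells were grown in DMEM with 10% FBS at 37 °C and 5% CO2. Luminescence was read with the ONE-Glo luciferase assay system 24 h and 30 h after treatment, followed by an alamarBlue viability assay. The value is PER2::LUC luminescence as fold of vehicle control.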

Row | SMILES | PER2::LUC luminescence (time after treatment 24 h) | PER2::LUC luminescence (time after treatment 30 h)
1 | O=C1Nc2ccc(I)cc2/C1=C/c1cc(Br)c(O)c(Br)c1 | 1.15 | 0.992
2 | CN(C)c1cc(NC(=O)CNC(C)(C)C)c(O)c2c1C[C@H]1C[C@H]3[C@H](N(C)C)C(O)=C(C(N)=O)C(=O)[C@@]3(O)C(O)=C1C2=O | 0.801 | 0.935
3 | CCNc1nc(Nc2cc(F)c(C(=O)N3CCOCC3)cc2OC)ncc1C(F)(F)F | 0.535 | 0.538
4 | CCNC(=O)[C@@H]1CCCN1C(=O)[C@H](CCCNC(=N)N)NC(=O)[C@H](CC(C)C)NC(=O)[C@@H](CC(C)C)NC(=O)[C@H](Cc1ccc(O)cc1)NC(=O)[C@H](CO)NC(=O)[C@H](Cc1c[nH]c2ccccc12)NC(=O)[C@H](Cc1c[nH]cn1)NC(=O)[C@@H]1CCC(=O)N1 | 0.987 | 0.922
5 | Nc1ncnc2c1c(-c1ccc(Oc3ccccc3)cc1)nn2[C@@H]1CCCNC1 | 0.544 | 0.62
6 | CC[N+](CC)(CC(=O)Nc1c(C)cccc1C)Cc1ccccc1 | 0.988 | 0.901
7 | COc1cc(NS(=O)(=O)c2ccc(N)cc2)nc(OC)n1 | 1.16 | 0.967
8 | CC1(C)O[C@@H]2[C@@H](CO[C@@]3(COS(N)(=O)=O)OC(C)(C)O[C@@H]23)O1 | 0.995 | 1
9 | COc1cc2ccc(=O)oc2cc1O | 1.02 | 1.04
10 | CC(C)Cn1cnc2c(N)nc3ccccc3c21 | 0.976 | 0.934
11 | COc1cc2oc3cc(OC)c(OC)c(CC=C(C)C)c3c(=O)c2c(O)c1CC=C(C)C | 0.964 | 0.905
12 | CN(C)c1ccc(-c2nc3ncc(Cl)c(N4CCN(CC(=O)Nc5nccs5)CC4)c3[nH]2)cc1 | 0.865 | 0.764
13 | CC(=O)OCC(=O)[C@@]1(O)[C@H](OC(C)=O)C[C@H]2[C@@H]3CCC4=CC(=O)C=C[C@]4(C)[C@@]3(F)[C@@H](O)C[C@@]21C | 0.822 | 1.16
14 | CON(C)C(=O)N1N=C(c2cc(F)ccc2F)S[C@@]1(CCCN)c1ccccc1 | 0.706 | 0.742
15 | COc1cc2ncnc(Nc3cccc(I)c3)c2cc1OC | 0.808 | 0.774
16 | CN[C@H](CNC(=O)N1CCC[C@@H]([C@@H](OCCNC(=O)OC)c2cccc(Cl)c2)C1)C[C@H]1CCCOC1 | 1 | 0.979
17 | NC1=NCC2c3ccccc3Cc3ccccc3N12 (stereo unspecified) | 1.01 | 1.02
18 | NC(=O)N1c2ccccc2CC(=O)c2ccccc21 | 0.926 and 0.8 | 1.01 and 1.04
19 | Oc1nc(-c2ccc(C(F)(F)F)cc2)nc2c1CSCC2 | 1.18 | 1.18
20 | Cc1nc2ccc(NC(=O)Nc3ccnc4cccnc34)cc2o1 | 0.937 | 0.94
21 | CC1(C)S[C@@H]2[C@H](NC(=O)COc3ccccc3)C(=O)N2[C@H]1C(=O)O | 1.09 | 1.56

Row | SMILES | PER2::LUC luminescence (time after treatment 24 h) | PER2::LUC luminescence (time after treatment 30 h)
22 | CCCC(=O)O[C@]1(C(=O)CO)CC[C@H]2[C@@H]3CCC4=CC(=O)CC[C@]4(C)[C@H]3[C@@H](O)C[C@@]21C | 0.744 | 1.05
23 | CCCCC1(C2CCCC2)Cc2cc(OCC(=O)O)c(Cl)c(Cl)c2C1=O (stereo in doubt) | 1.15 | 0.876
24 | COc1ccc2c3c1O[C@H]1C[C@@H](O)C=C[C@@]31CCN(C)C2 | 0.974 and 0.913 and 0.857 | 1.05 and 0.99 and 0.959
25 | Cc1cc(F)c(Nc2ncnc3cc(OCc4ccccc4)ccc23)cc1O | 0.628 | 0.608
26 | O=C(CN1C(=O)C2(CCCC2)NC[C@H]1c1cc(F)cc(F)c1)Nc1ccc2c(c1)C[C@@]1(C2)C(=O)Nc2ncccc21 | 0.973 | 1.02
27 | O=c1[nH]c(=O)n([C@H]2C[C@H](O)[C@@H](CO)O2)cc1C(F)(F)F | 0.721 | 0.807
28 | Cn1cncc1[C@@](N)(c1ccc(Cl)cc1)c1ccc2c(c1)c(-c1cccc(Cl)c1)cc(=O)n2C | 0.442 | 0.719
29 | Cc1nnc(SCC2=C(C(=O)O)N3C(=O)[C@@H](NC(=O)Cn4cnnn4)[C@H]3SC2)s1 | 0.812 | 0.938
30 | Cc1cc(C#N)cc(C)c1Oc1nc(Nc2ccc(C#N)cc2)nc(N)c1Br | 0.733 and 0.457 | 0.829 and 0.664
31 | CN(C)CC[C@@H](c1ccc(Br)cc1)c1ccccn1 | 0.821 | 0.886
32 | c1cc(CN2CCCNCCNCCCNCC2)ccc1CN1CCCNCCNCCCNCC1 | 0.906 and 0.99 | 1.04 and 0.94
33 | O=C1OC(=O)[C@H]2[C@@H]1[C@@H]1CC[C@H]2O1 | 0.92 | 0.838
34 | O=C(NNc1ccccc1)c1ccncc1 | 1.04 and 0.927 | 1.06 and 0.975
35 | CCNC(=O)c1cc2c(-c3cc(OCCN4CCCC4)c(Cl)cc3Cl)nc(N)nc2s1 | 0.289 | 0.287
36 | CC(C)n1cnc2c(NCCc3ccc(O)cc3)nc(-c3csc4ccccc34)nc21 | 0.699 | 0.805
37 | CC(C)NC(=N)NC(=N)Nc1ccc(Cl)cc1 | 0.554 and 0.353 | –
38 | C[C@]12CCC3c4ccc(OS(=O)(=O)O)cc4CCC3C1CC[C@H]2O (stereo partly specified) | 1.08 | 0.98
39 | CCCOc1ccc(Br)cc1-c1cc(-c2ccc(Cl)cc2)[nH]c1-c1ccncc1 | 1.02 | 1.02
40 | C=C[C@@](C)(/C=C/c1ccc(O)cc1)CCC=C(C)C | 1.05 | 1.09
41 | CC(C)[C@@H]1CC[C@@H](C)CC1=O | 1 | 0.944
